# Laboratory results reported in PMC12040169 (PLOS Biology, 2025).
# Some of the results follow.
# Tested on: T1, C. trachomatis L2/434/Bu expressing GFP (CTL2-GFP)
# T1 construct: L2/434/Bu GFP intracellular growth in HeLa cells
# Parameters: species or system HeLa; C. trachomatis total inclusion area by high-content imaging, normalised to DMSO
# Details: total inclusion area; 28.5 h, 10 µM; inhibitor
# Procedure, shortened: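 Post-fluorescence-read fixation, DNA staining with Hoechst and high-content imaging; GFP inclusion area and number per well, and nuclei counts, used as proxies for bacterial growth and host viability.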
row,SMILES,% of control remaining
1,Cc1ccc(Cl)c(N2CCN(CCCn3c(=S)[nH]c4ccccc4c3=O)CC2)c1 [CBK268011],93.9958
2,CCc1nc2ccc(C(=O)NCCN3CCCC3)cn2c1N(C)C(=O)c1ccncc1 [CBK146655],122.295
3,COc1ccc(CN2/C(=N/c3ccccc3)S[C@H]3[C@@H]2[C@@H](O)[C@H](O)C[C@@H]3C(N)=O)cc1 [CBK288941],119.382
4,COc1cncc(-c2cnc(N)c(N[C@@H](CO)C(C)C)n2)c1 [CBK063734],69.0861
5,O=C(O)c1ccc(NC(=O)c2nccnc2C(=O)O)cc1 [CBK260916],107.285
6,Fc1ccccc1CN1CCC(Oc2nccnc2OCc2cccnc2)CC1 [CBK083157T],86.3499
7,COC(=O)c1cccc(CCC2CC(=O)C=C(O)C2)c1 (stereo not drawn) [CBK012720],79.7172
8,CS(=O)(=O)Nc1nccnc1OC1CCN(CCc2ccccn2)CC1 [CBK084286],75.9903
9,CC(C)(C)c1cc(CC2(NCc3ccco3)COC2)no1 [CBK289642],124.453
10,COCC1CCCN(Cc2ccc(Br)cc2)C1 (stereo not drawn) [CBK304624],63.7807
11,Clc1ccc(CNC2CCCCC2NCc2ccc(Cl)nc2)cn1 (stereo not drawn) [CBK025983],69.8159
12,COCc1cccc(-c2ccc(C(=O)N(C)CCN(C)C)c(N(C)C)n2)c1 [CBK106091],96.0271
13,CC(=O)c1c(C)nn(C(C)CC(=O)Nc2ccc(Cl)c(Cl)c2)c1C (stereo not drawn) [CBK270021],77.7681
14,O=C(CC1OCCc2ccsc21)N1CCCC(n2cccn2)C1 (stereo not drawn) [CBK305154],103.415
15,O=C(O)c1ccc(CN2CC[C@H](c3nc4ccccc4o3)C2)cc1 [CBK289387],113.801
16,O=C(O)c1cc(S(=O)(=O)NCCCN2CCOCC2)ccc1Cl [CBK299804],81.4357
17,Cc1cc2c(cc1C)NC(CC(=O)Nc1cccc(Br)c1)C(=O)N2 (stereo not drawn) [CBK269548],69.9439
18,COc1ccc(OC)c(NC(=O)c2ccccc2C(=O)O)c1 [CBK287082],116.973
19,COc1ccccc1-c1nccnc1OCCc1ccc(NC(C)=O)cc1 [CBK106815],94.1265
20,Cc1c(C(=O)N2CCCCC2C(N)=O)nnn1-c1cccc(Cl)c1 (stereo not drawn) [CBK305490],98.1815
21,COc1ccc(CCN(Cc2ccc(Cl)c(Cl)c2)C(=O)Nc2cccnc2)cc1OC [CBK158797],81.8961

row,SMILES,% of control remaining
1,O=C(O)C1CCCCC1C(=O)Nc1ccc(S(=O)(=O)N2CCCCC2)cc1 (stereo not drawn) [CBK267950],92.315
2,O=C(c1ccco1)N1CCC(n2nc(C3CC3)ccc2=O)CC1 [CBK282350],80.0015
3,CC(=O)Nc1ccc(/C=N/NC(=O)c2nnn(-c3nonc3N)c2-c2ccccc2)cc1 [CBK262790],86.0371
4,COc1ccc(N2CCN(/C(=N/S(=O)(=O)c3ccccc3)Nc3nc(C)cc(C)n3)CC2)cc1 [CBK266750],83.3031
5,CC(Oc1ccccc1)C(=O)N1CCN(CCO)CC1 (stereo not drawn) [CBK267428],96.6239
6,CC(C)N1C(=O)C2(CC(=O)N(CCCN3C(=O)c4ccccc4C3=O)C2=O)c2cc(F)ccc21 (stereo not drawn) [CBK075969],98.1011
7,O=C(O)CCCn1cc(NC(=O)CCc2ccccc2)cn1 [CBK287055],82.663
8,CC(C)c1cc(C(=O)NCCN2CCc3ccccc32)n(C)n1 [CBK282685],93.2502
9,Cc1ccc(NC(=O)c2cnc3scc(C)n3c2=O)cc1 [CBK287454],89.6792
10,CCn1ncc(CN(C)C(=O)CCN2CCCCCC2=O)c1C [CBK306718],95.1163
11,Cc1ccccc1-c1ocnc1C(=O)NCc1ccco1 [CBK282408],110.957
12,CC(CC(=O)O)CC(=O)NNc1ncc(Cl)cc1Cl (stereo not drawn) [CBK264398],100.117
13,Cn1c(N2CC[C@H](O)C2)nc2cc(C(=O)NC3CCCC3)ccc21 [CBK306779],95.4717
14,CC(=O)Nc1ccc(S(=O)(=O)N2CCN(S(=O)(=O)N(C)C)CC2)cc1 [CBK266545],119.421
15,O=C(Nc1ccc(Br)c2cccnc12)c1ccc(COc2ccccc2)cc1 [CBK266062],98.2607
16,CCC(CC(=O)NCc1c(C)n[nH]c1C)c1c[nH]c2ccccc12 (stereo not drawn) [CBK282651],116.008
17,Nc1cccc(Sc2cccc(C(F)(F)F)n2)c1 [CBK115239],77.3544
18,Cc1ccc(NC(=O)N(C)C2CCN(C)C2)cc1 (stereo not drawn) [CBK156023],47.1735
19,CN(CC(=O)Nc1ccc([N+](=O)[O-])cc1)S(=O)(=O)c1ccc2ccccc2c1 [CBK267422],91.6621
20,COCCOC(=O)N1CCC(C(=O)NC(c2ccc(Cl)cc2)c2cccs2)CC1 (stereo not drawn) [CBK059702],87.4843
21,CC1=CC(C)C(CN2CC34C=CC(O3)C(C(=O)O)C4C2=O)C(C)C1 (stereo not drawn) [CBK287005],110.937

row,SMILES,% of control remaining
1,OCc1ccc(-c2nccnc2NCc2ccccn2)cc1 [CBK037088],106.518
2,Fc1cccc(-c2nc3cnccn3c2NC2CCCC2)c1 [CBK283780],97.3406
3,Cc1ccc(CC(=O)N2CCC(Cc3ccccc3-c3ccccc3)(C(N)=O)CC2)cc1 [CBK285740],95.08
4,COc1ccc(/C(N)=N/OC(=O)C(C)Oc2ccc(C(C)(C)C)cc2)cc1OC (stereo not drawn) [CBK267378],81.996
5,Cn1c(=O)oc2ccc(C(=O)Nc3cccc(-c4ccc(F)cc4)c3)cc21 [CBK286023],74.3088
6,CN(C)C(=O)Cn1nc(-c2cccc(-n3cccc3)c2)oc1=O [CBK283759],48.5089
7,CC(=O)C(Sc1nc(NC(C)C)nc(N(C)C)n1)C(C)=O [CBK269811],92.2576
8,Cc1cccc(C)c1NC(=O)CC1Sc2ccccc2NC1=O (stereo not drawn) [CBK267160],103.532
9,O=C(CN1CCCCC1)Nc1c(-c2ccccc2)c2cc(Br)ccc2[nH]c1=O [CBK263351],86.6324
10,Cc1oc(NC(=O)CN2CCN(c3ncccn3)CC2)c(C#N)c1C [CBK305569],110.515
11,CCN(CC)c1nc(Cl)c(C#N)c2c1CN(C)CC2 [CBK009140],50.1958
12,O=C1COc2ccccc2C/C=C/C[C@H]2CN(C(=O)Cn3ncc4ccccc4c3=O)CC[C@H]2N1 [CBK292084],80.0418
13,O=C(O)C1CCC(CNc2ccc([N+](=O)[O-])cn2)CC1 (stereo not drawn) [CBK286626],127.74
14,Cc1nc2c(C)cccc2c(O)c1CN1CCCCCC1 [CBK264512],106.948
15,COc1cc2c(c(OC)c1OC)CC(=O)NC21CCN(C(=O)NC(C)(C)C)CC1 [CBK047301],81.9995
16,Cc1cc(CN2CCN(C(=O)NCc3cccnc3)CC2)on1 [CBK305627],38.8648
17,COc1cccc(OC)c1-c1cn2ccnc2c(NCc2ccccn2)n1 [CBK037439],96.2934
18,CC(c1ccccc1)C(CC(=O)O)C(=O)NCc1ccccc1 (stereo not drawn) [CBK286830],74.0769
19,O=C(O)CCCn1cc(NC(=O)c2cccc(F)c2)cn1 [CBK270051],88.6366
20,COc1ccccc1NC(=O)NC(=O)C1CCN(C(C)=O)CC1 [CBK034853],89.3922
21,COc1ccc(Nc2cc(-n3nc(C)cc3-c3ccccc3)ncn2)cc1 [CBK293925],108.891

row,SMILES,% of control remaining
1,Cc1ccc(Cn2ccsc2=NC(=O)c2cc(S(=O)(=O)N3CCOCC3)ccc2C)cc1 [CBK296935],79.2356
2,COC(=O)Nc1ccccc1N1CCN(CCCCN2CCN(c3ccccc3)C2=O)CC1 [CBK024372C],23.0515
3,Clc1ccc(-c2cn(-c3cnc4ccccc4c3)nn2)cc1 [CBK113044],85.5451
4,O=C(C1CCC1)N1CCC(n2c(=O)[nH]c3ccccc32)CC1 [CBK149709],101.316
5,Nc1c(-c2cc(F)cc(F)c2)cnc2ncccc12 [CBK083677],95.2748
6,N#C/C(=N/Nc1ccc(Br)cc1)C1=NC(=O)CS1 [CBK018747],88.642
7,O=C(COC(=O)c1ccncc1)c1ccc(OC(=O)c2ccccc2)cc1 [CBK265169],91.5187
8,Cc1nn(-c2ccccc2)c2[nH]c(=O)c(CNC(C)C)cc12 [CBK282899],107.321
9,COc1ccc(C(=O)Nc2ccccc2N2CCN(C)CC2)cc1Cl [CBK268001],84.937
10,CC(C)CCC(C)NC(=O)c1ccc(Oc2ccc(F)cc2)cc1 (stereo not drawn) [CBK295650],76.9126
11,Nc1nonc1C(=O)NCCNCc1ccc(Cl)cc1 [CBK267194],108.554
12,Nc1cc(O)nc(SCC(=O)N2CCN(c3ccccc3)CC2)n1 [CBK267925],103.166
13,CN(Cc1ccc2ncccc2c1)C(=O)CC1CCN(CCc2ccccc2)CC1 [CBK286261],72.6554
14,Cc1nccn1CCC1CCN(C(=O)c2cnn(C)c2)CC1 [CBK281951],112.555
15,CC1(C)Cc2c(oc(N)c2C#N)CO1 [CBK014395],70.4948
16,CC(C)n1c(=O)[nH]c2ccncc2c1=O [CBK015763],97.3318
17,O=C(O)C1CCCN1S(=O)(=O)c1ccc([N+](=O)[O-])cc1 (stereo not drawn) [CBK261424],109.809
18,O=S(=O)(c1ccc(Br)cc1C(F)(F)F)N1CCOCC1 [CBK062405],61.1399
